This note sets out measurements from the supplement of paper PMC9446081.

Each structure is given as a SMILES string. Hit rate of the full screen: of about 39,000 compounds, about 220 (0.56%) showed activity. The list shows a part of the results.
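Further: static incubation at 37 °C against the wild-type strain, values averaged over two biological replicates.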

The subject of this experiment is Escherichia coli K-12 BW25113. The experiment in a line: relative growth (OD600 normalised to plate interquartile mean) (fraction); higher = less growth inhibition, active = 0.2 or less. The note with it: 50 µM; LB; incubation time: overnight (16-24 h).
Regarding `C[C@@H]1CN([C@@H](C)CO)C(=O)c2cccc(NS(=O)(=O)c3cccs3)c2O[C@H]1CN(C)Cc1ccc(Cl)c(Cl)c1`, the relative growth is inactive: 1.02. As to `C[C@@H]1CCCCO[C@@H](CN(C)Cc2ccc(Cl)c(Cl)c2)[C@@H](C)CN([C@H](C)CO)C(=O)c2cc(NC(=O)Cc3ccccc3)ccc2O1`, the relative growth is inactive: 1.02. Regarding `C[C@@H]1CCCCO[C@@H](CN(C)Cc2ccc(C(=O)Nc3ccccc3N)cc2)[C@@H](C)CN([C@H](C)CO)C(=O)c2cc(NC(=O)Nc3ccc(C(F)(F)F)cc3)ccc2O1`, the relative growth is inactive: 0.982. `C=C[C@](C)(O)CC/C=C(\C)C(=O)O[C@@H]1[C@@H](O[C@@](C)(C=C)CC/C=C(\C)C(=O)O[C@H]2C[C@@]3(C(=O)O[C@H]4OC[C@@H](O[C@H]5O[C@@H](CO)[C@@H](O)[C@@H](O[C@H]6O[C@@H](CO)[C@@H](O[C@H]7O[C@@H](CO)[C@@H](O)[C@@H](O)[C@@H]7O)[C@@H](O)[C@@H]6O)[C@@H]5O)[C@@H](O)[C@@H]4O)[C@@H](O)C[C@@]4(C)C(=CC[C@H]5[C@@]6(C)CC[C@@H](O[C@H]7O[C@@H](CO)[C@@H](O[C@H]8O[C@@H](CO)[C@@H](O)[C@@H](O[C@H]9OC[C@@H](O)[C@@H](O)[C@@H]9O)[C@@H]8O)[C@@H](O)[C@@H]7O)C(C)(C)[C@@H]6CC[C@@]54C)[C@@H]3CC2(C)C)OC[C@@H](O)[C@H]1O`: the relative growth is inactive: 0.638. Turning to `C[C@@H]1CCCCO[C@@H](CN(C)C(=O)Nc2ccc(C(F)(F)F)cc2)[C@H](C)CN([C@H](C)CO)C(=O)c2cc(NS(=O)(=O)c3ccccc3)ccc2O1`, the relative growth is inactive: 1.04. For `COc1cccc(S(=O)(=O)Nc2ccc3c(c2)[C@@H]2C[C@@H](CC(=O)NCc4cccc(F)c4)O[C@H](CO)[C@@H]2O3)c1`, the relative growth was inactive: 0.99. In the case of `COCC#Cc1cnc2c(c1)C(=O)N([C@H](C)CO)C[C@@H](C)[C@H](CN(C)S(=O)(=O)c1cn(C)cn1)O2`, the relative growth was inactive: 0.97. For the compound `C[C@H](CO)N1C[C@H](C)[C@H](CN(C)S(=O)(=O)c2ccccc2)OCCCC[C@H](C)Oc2ccc(NC(=O)Nc3cccc4ccccc34)cc2C1=O`, the relative growth is inactive: 1.06. As for `C[C@@H]1CCCCO[C@H](CN(C)C(=O)c2ccccc2)[C@@H](C)CN([C@@H](C)CO)C(=O)c2cc(NC(=O)Cc3ccccc3)ccc2O1`, the figure is inactive: 1.03; as for `C[C@H]1CN([C@@H](C)CO)C(=O)c2cc(NC(=O)Nc3ccc4c(c3)OCO4)ccc2O[C@@H]1CN(C)Cc1ccc(C(F)(F)F)cc1`, inactive: 1.06. With `CCCN(C)C[C@@H]1Oc2cc(C#Cc3ccccc3OC)ccc2S(=O)(=O)N([C@@H](C)CO)C[C@@H]1C`, the relative growth is inactive: 0.987.

With `Cn1nnc2cc(NC(=O)NCCO)ccc21`, the relative growth was inactive: 0.925. Take `CO[C@H]1CN(C)C(=O)c2cc(NC(=O)C3CC3)ccc2OC[C@H](C)N(C(=O)Cc2ccccn2)C[C@H]1C`: the relative growth was inactive: 1.04. Consider `Cc1noc(C)c1NC(=O)N(C)C[C@H]1OCCCC[C@H](C)Oc2ccc(NC(=O)Cc3ccccc3)cc2C(=O)N([C@@H](C)CO)C[C@@H]1C`, for which the relative growth is inactive: 0.987. `C[C@H](CO)N1C[C@H](C)[C@H](CN(C)S(C)(=O)=O)Oc2c(NC(=O)Nc3ccc(F)cc3)cccc2C1=O`: the relative growth was inactive: 1.

Take `CN1C(=O)c2cc(NC(=O)C3CCOCC3)ccc2OC[C@@H]2O[C@H](CC(=O)NCCc3ccncc3)CC[C@@H]21`: the relative growth is inactive: 0.994.

As for `CC(C)NC(=O)Nc1ccc2c(c1)C(=O)N([C@@H](C)CO)C[C@H](C)[C@H](CN(C)C(=O)Nc1ccc3c(c1)OCO3)O2`, the relative growth was inactive: 0.979. For the compound `C[C@@H]1CCCCO[C@@H](CN(C)C(=O)Nc2ccccc2)[C@@H](C)CN([C@@H](C)CO)C(=O)c2cc(NC(=O)Nc3ccc4c(c3)OCO4)ccc2O1`, the relative growth is inactive: 1.02. For `COc1cccc(-c2ccc3c(c2)O[C@@H](CN(C)Cc2cncnc2)[C@@H](C)CN([C@@H](C)CO)S3(=O)=O)c1` the value was inactive: 1.01; for `C[C@H](CO)N1C[C@H](C)[C@H](CN(C)C(=O)c2ccncc2)Oc2cc(C#CC3(O)CCCC3)ccc2S1(=O)=O`, inactive: 0.999. Consider `O=S(=O)(NCC[C@H]1CC[C@H](NS(=O)(=O)c2ccccc2Cl)[C@H](CO)O1)c1ccc(Cl)cc1`, for which the relative growth is inactive: 0.999. Regarding `CCC(=O)Nc1ccc2c(c1)OC[C@@H](C)N(C(=O)CN1CCOCC1)C[C@@H](C)[C@@H](OC)CN(C)C2=O`, the relative growth was inactive: 1.03. Regarding `C[C@@H]1CCCCO[C@H](CN(C)Cc2ccccc2)[C@@H](C)CN([C@H](C)CO)C(=O)c2cc(NC(=O)Nc3ccccc3)ccc2O1`, the relative growth was inactive: 1. Consider `C[C@H](CO)N1C[C@H](C)[C@@H](CN(C)Cc2ccc(-c3ccccc3)cc2)Oc2ccc(NC(=O)CCC(F)(F)F)cc2CC1=O`, for which the relative growth was inactive: 0.969. As to `NCc1nnc2n1CCCCC2`, the relative growth is inactive: 1.02.

On to `C[C@H]1CN([C@@H](C)CO)C(=O)c2cccc(NC(=O)Nc3ccc(C(F)(F)F)cc3)c2O[C@@H]1CN(C)C(=O)Nc1ccccc1`, for which the relative growth was inactive: 0.852.

For `C[C@@H]1CN([C@@H](C)CO)C(=O)Cc2cc(NS(=O)(=O)c3ccc(F)cc3)ccc2O[C@H]1CN(C)Cc1ccc(Cl)c(Cl)c1`, the relative growth was inactive: 0.989.

On to `O.OCC(O)C(O)C(OC1OC(CO)C(O)C(O)C1O)C(O)CO` (stereo not drawn), for which the relative growth is inactive: 0.993. `C[C@H]1CN([C@@H](C)CO)C(=O)Cc2cc(NS(C)(=O)=O)ccc2O[C@@H]1CN(C)C`: the relative growth is inactive: 1.05. Take `COc1ccc(S(=O)(=O)N(C)C[C@H]2OCCCC[C@@H](C)Oc3ccc(NC(=O)Nc4cccc5ccccc45)cc3C(=O)N([C@@H](C)CO)C[C@H]2C)cc1`: the relative growth is inactive: 1.02. As to `C[C@@H]1CN([C@H](C)CO)C(=O)c2cccc(NC(=O)c3cnccn3)c2O[C@H]1CN(C)S(=O)(=O)c1ccc(Cl)cc1`, the relative growth is inactive: 0.987. For `CO[C@@H](CN(C)S(=O)(=O)c1cccc(Cl)c1)[C@@H](C)CN([C@H](C)CO)S(=O)(=O)c1ccc(Cl)cc1` the value was inactive: 1.05; for `CCCN(C)C[C@H]1OCCCC[C@H](C)Oc2ccc(NC(=O)c3ccccc3)cc2C(=O)N([C@@H](C)CO)C[C@H]1C`, inactive: 1.01.
